Source: the antibiotic and cytotoxicity screens of Wong et al. (2023)
This is one part of the list.

These compounds were tested on S. aureus RN4220 (assay: growth inhibition call (relative growth <= 0.2)). Details: 50 µM.

Growth inhibition call, inactive:
C[C@@H]1CN([C@@H](C)CO)C(=O)c2cccc(NS(=O)(=O)c3cn(C)cn3)c2O[C@@H]1CN(C)C(=O)Nc1ccc(F)cc1
C[C@H]1CN([C@@H](C)CO)C(=O)c2cc(NC(=O)CCCN(C)C)ccc2O[C@H]1CN(C)S(=O)(=O)c1ccc(F)cc1
Cc1noc(C)c1S(=O)(=O)N(C)C[C@@H]1OCc2cn(nn2)CCCC(=O)N([C@@H](C)CO)C[C@H]1C
COc1ccc(S(=O)(=O)Nc2ccc3c(c2)CC(=O)N([C@@H](C)CO)C[C@H](C)[C@H](CN(C)C(=O)Nc2c(C)noc2C)O3)cc1
CCc1nc2ccc(C(=O)NCc3ccc4c(c3)OCO4)cn2c1N(CC)Cc1cccc(Br)c1
C[C@@H]1CCCCO[C@H](CN(C)Cc2ccc(Cl)c(Cl)c2)[C@H](C)CN([C@@H](C)CO)C(=O)c2cc(NS(=O)(=O)c3ccc(Cl)cc3)ccc2O1
CNC(=O)C[C@H]1Nc2ccccc2NC1=O
COc1ccccc1C#Cc1cnc2c(c1)C(=O)N([C@H](C)CO)C[C@@H](C)[C@@H](CN(C)C(=O)CC1CC1)O2
C[C@@H]1CN([C@@H](C)CO)C(=O)c2cc(C#CC3(O)CCCC3)cnc2O[C@@H]1CN(C)C(=O)Cc1ccncc1
COc1ccc([Si](C)(C)[C@H]2[C@H](CCOC(=O)NCCCCCC(=O)NO)O[C@]3(C(=O)N(Cc4cccc(I)c4)c4ccccc43)[C@@H]2C)cc1
CN1C(=O)c2cc(NC(=O)c3cscn3)ccc2OC[C@H]2O[C@@H](CC(=O)N3CCOCC3)CC[C@@H]21
C[C@H]1CN([C@@H](C)CO)C(=O)Cc2cc(NC(=O)Nc3ccccc3)ccc2O[C@H]1CN(C)C(=O)Nc1ccc(C(F)(F)F)cc1
C[C@H]1CN([C@@H](C)CO)S(=O)(=O)c2ccc(-c3ccncc3)cc2O[C@H]1CN(C)S(=O)(=O)c1ccccc1F
Cc1ccc(S(=O)(=O)Nc2ccc3c(c2)CC(=O)N([C@@H](C)CO)C[C@@H](C)[C@@H](CN(C)S(C)(=O)=O)O3)cc1
Cc1noc(C)c1S(=O)(=O)Nc1ccc2c(c1)CC(=O)N([C@@H](C)CO)C[C@@H](C)[C@H](CN(C)C(=O)NC(C)C)O2
CCCN(C)C[C@H]1OCCCC[C@H](C)Oc2ccc(NC(=O)CCC(F)(F)F)cc2C(=O)N([C@H](C)CO)C[C@H]1C
C[C@@H]1CN([C@@H](C)CO)C(=O)c2cc(NS(C)(=O)=O)ccc2O[C@H]1CN(C)C(=O)NC1CCCCC1
O=C(C[C@@H]1CC=CCC[C@@H](Cc2ccc(F)cc2)C(=O)OCCNC1=O)N[C@@H](CO)Cc1ccccc1
COc1ccc([Si](C)(C)[C@@H]2[C@@H](CCn3cc(CCOC(=O)NCCCCCC(=O)NO)nn3)O[C@]3(C(=O)N(Cc4ccc(I)cc4)c4ccccc43)[C@H]2C)cc1
O=C1N[C@H](Cc2ccccc2)COC(=O)[C@@H](Cc2ccc(F)cc2)CCC=CC[C@@H]1CC(=O)N(CCO)Cc1ccccc1
C[C@@H]1CN([C@H](C)CO)C(=O)c2cc(NC(=O)Nc3cccc4ccccc34)ccc2O[C@@H]1CN(C)S(=O)(=O)c1ccc(Cl)cc1
C[C@@H]1CCCCO[C@H](CN(C)S(=O)(=O)c2cccs2)[C@@H](C)CN([C@H](C)CO)C(=O)c2cc(NC(=O)C3CCCCC3)ccc2O1
C[C@H]1CN([C@@H](C)CO)C(=O)c2cc(NS(C)(=O)=O)ccc2O[C@H]1CN(C)Cc1ccc(C(F)(F)F)cc1
C[C@@H]1CN([C@@H](C)CO)C(=O)c2cc(NC(=O)CCN3CCOCC3)ccc2O[C@H]1CN(C)S(=O)(=O)c1ccccc1
C[C@@H]1CCCCO[C@@H](CN(C)C(=O)Nc2ccc3c(c2)OCO3)[C@H](C)CN([C@@H](C)CO)C(=O)c2cc(NC(=O)NC3CCCCC3)ccc2O1
C[C@@H]1CCCCO[C@@H](CN(C)Cc2ccc(C(=O)O)cc2)[C@@H](C)CN([C@H](C)CO)C(=O)c2cc(NC(=O)Nc3ccc4c(c3)OCO4)ccc2O1
CC[C@@]12O[C@H]3[C@@H](O)[C@H]4C[C@@H]3[C@@H]1[C@@H]4C(=O)N2C
COc1cc(OC)c2ccc(=O)oc2c1
C[C@H]1CN([C@@H](C)CO)C(=O)c2cccc(NC(=O)Nc3ccc(F)cc3)c2O[C@H]1CN(C)Cc1ccc(Cl)c(Cl)c1
O=C(C[C@@H]1CC[C@H]2[C@@H](COC[C@H](O)CN2C(=O)c2cccnc2)O1)NCc1ccc(-c2ccccc2)cc1
C[C@H]1CN([C@@H](C)CO)C(=O)Cc2cc(NC(=O)Nc3ccc4c(c3)OCO4)ccc2O[C@@H]1CN(C)S(C)(=O)=O
C[C@@H]1CN([C@@H](C)CO)C(=O)c2cccc(NC(=O)Nc3ccc(C(F)(F)F)cc3)c2O[C@H]1CN(C)Cc1ccc(Oc2ccccc2)cc1
CN(C)CC(=O)N[C@H]1CC[C@@H](CCNS(=O)(=O)c2ccccc2)O[C@@H]1CO
CCOC[C@@H](O)CS(=O)(=O)c1ccccn1
C[C@@H]1CCCCO[C@@H](CN(C)C(=O)Cc2ccccc2)[C@H](C)CN([C@@H](C)CO)C(=O)c2cc(NC(=O)Nc3ccc4c(c3)OCO4)ccc2O1
C[C@@H]1CN([C@H](C)CO)C(=O)CCCn2cc(nn2)CO[C@H]1CN(C)S(=O)(=O)c1cccc(C#N)c1
C[C@H](CO)N1C[C@H](C)[C@H](CN(C)CC2CCOCC2)Oc2cc(C#Cc3ccccc3F)ccc2S1(=O)=O
C[C@H]1CN([C@@H](C)CO)C(=O)Cc2cc(NC(=O)c3ccncc3)ccc2O[C@@H]1CN(C)Cc1ccc2c(c1)OCO2
CCCOC(=S)N[C@H]1OC[C@@H](O)[C@@H](O)[C@@H]1O
C[C@@H]1CN([C@H](C)CO)C(=O)c2cc(NC(=O)c3ccccc3)ccc2O[C@@H](C)CCCCO[C@@H]1CN(C)C(=O)Cc1ccccc1
